Data taken from the supplement of paper PMC3334620.
Whole data set: some 33,000 sequences, median “E-score (-0.5 to 0.5)” near -0.012, cut for the highest 2% near 0.29. The list shows a part of the results.

Biological target: T1, Ybr033w (UniProt P38073)
T1 sequence: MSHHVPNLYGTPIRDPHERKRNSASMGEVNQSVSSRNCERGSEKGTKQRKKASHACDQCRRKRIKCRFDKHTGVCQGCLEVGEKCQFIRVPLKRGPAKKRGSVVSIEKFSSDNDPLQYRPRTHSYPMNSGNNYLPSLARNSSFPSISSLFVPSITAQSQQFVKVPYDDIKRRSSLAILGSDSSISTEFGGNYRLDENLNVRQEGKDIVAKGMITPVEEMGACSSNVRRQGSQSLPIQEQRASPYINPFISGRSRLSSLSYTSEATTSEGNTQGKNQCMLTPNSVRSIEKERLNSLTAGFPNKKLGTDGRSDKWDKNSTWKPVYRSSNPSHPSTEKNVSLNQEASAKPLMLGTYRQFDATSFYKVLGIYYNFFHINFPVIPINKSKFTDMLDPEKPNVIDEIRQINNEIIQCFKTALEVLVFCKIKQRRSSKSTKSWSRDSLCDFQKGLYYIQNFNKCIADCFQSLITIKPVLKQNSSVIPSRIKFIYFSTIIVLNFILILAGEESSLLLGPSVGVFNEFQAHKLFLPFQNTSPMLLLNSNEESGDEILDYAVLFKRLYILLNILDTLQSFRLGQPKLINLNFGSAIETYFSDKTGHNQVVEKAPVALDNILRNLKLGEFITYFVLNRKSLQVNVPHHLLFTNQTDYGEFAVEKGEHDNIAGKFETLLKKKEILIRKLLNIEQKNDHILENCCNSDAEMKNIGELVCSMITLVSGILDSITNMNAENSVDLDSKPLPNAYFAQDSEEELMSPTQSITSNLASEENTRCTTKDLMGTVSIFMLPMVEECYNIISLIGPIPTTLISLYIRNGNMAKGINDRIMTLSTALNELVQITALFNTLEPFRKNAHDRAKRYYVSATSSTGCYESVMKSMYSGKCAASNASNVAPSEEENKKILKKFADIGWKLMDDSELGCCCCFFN
Test: PBM E-score (8-mer binding enrichment) (E-score (-0.5 to 0.5)); higher = stronger / more preferred TF binding; most listed sequences are background and not binding sites
Conditions: protein concentration: 200 nM; construct: GST-full length
Procedure, shortened: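 Detection of bound protein used fluorescent anti-GST, with scans normalised by masliner. The proteins were GST-tagged yeast transcription factors applied at about 100-200 nM to universal all-10-mer Agilent arrays made double-stranded by primer extension. Each ungapped eight-base word, pooled with its reverse complement, was scored with an E-score from the Universal PBM Analysis Suite.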

Sequence	PBM E-score
AGGAGTAT	-0.00254
CCGATAGC	-0.298
CATCCATA	0.0376
GGGTGTGA	-0.114
CCTCCGCA	-0.201
GCATTGAC	-0.0197
ACAATCGG	0.0552
CACAGGAA	0.15
TACCCATA	-0.0142
GCTAGCAC	-0.0925
ATGCTGGA	-0.0385
AGACAAAA	0.0463
GCTCCTCC	-0.34
CACCGCAA	0.202
AAGTGACA	0.24
GCAGCGGA	-0.0654
GCACTCGC	0.0865
ACTTAGCA	0.00122
CCACCTCA	-0.134
AATCTCAA	0.0508
AACACGAC	0.00288
GGTGTTAC	-0.123
GAGCTTCC	0.0838
AAAATAGC	-0.0427
ACTTTTTC	0.194

Sequence	PBM E-score
CAGCCTCA	-0.24
CGATCGCG	-0.0697
CGTGTTGC	-0.027
AGTAACTG	0.0214
AGCAAACT	0.179
ACGGACAA	0.103
CAAGGGGC	-0.182
ACACAATG	0.238
TAATGACA	0.122
ACATCCGA	-0.00058
AAGACGCG	0.0343
CGGTTCTC	-0.126
CCGCTACG	-0.168
ACCTGTTG	0.13
GAGGCACC	-0.342
ATATTCAC	0.133
GGCGTACA	-0.0865
ACGACTTC	-0.0544
CCACGTCC	-0.223
CACTTATC	0.178
CAATTTAA	0.27
ACTGGTAG	0.018
CTGGGCAA	0.0529
CACACATC	-0.165
TTCAAAAA	0.239

Sequence	PBM E-score
TAAGCTTA	0.102
CAAGCAAA	-0.0607
CCATCTGA	0.0862
TGGAGACA	-0.0605
GTCGGACA	-0.062
TCAGTTAA	0.107
ACTGCATG	0.015
AATAGCCT	0.00241
ACAGCATG	-0.0886
AGGATATA	0.245
GCTTTAGA	-0.0625
CCAGTGTA	-0.0467
GCTTTCTA	0.14
AACTAATT	0.293
CGTCGTTA	-0.0128
CACACAAG	0.0777
GGCGACCA	-0.375
GTAGAACA	-0.199
GGCTGTTA	0.0184
AAAACTGG	0.0511
ACCTCGCC	-0.261
CGAAGCAC	-0.102
TATACATA	0.176
ACAGCACT	0.0697
CGGGACAC	-0.265

Sequence	PBM E-score
CAATGTTA	0.121
GATAACAC	0.089
CAAGAATG	0.135
ACATACAC	0.172
AGGTATCC	-0.0773
ATGGTGAC	-0.0449
AGGGACTA	-0.029
AATTCCCG	0.0788
AATGATGG	0.12
CAGAACTC	-0.0208
CGATAGGC	-0.119
CTTCATCA	0.0846
GCTGACGA	-0.14
CCCGGAGA	0.0405
CGTGAAAA	0.231
GTGCTGCA	0.0439
GGAGGAAA	0.145
GCGTGCGA	-0.0546
ATCAGGGC	-0.147
GCGACGCC	-0.191
CGGGTGAC	-0.214
AACTTCCT	0.0972
CAGTAGAA	-2e-05
CTATTCTA	0.129
AGAATATG	0.229

Sequence	PBM E-score
GCCGTCAC	-0.0864
CACAAGGA	-0.0221
GTTCGAGA	-0.0752
ATAAAGCC	-0.0108
AATTGCGG	0.00918
ACTGGGGG	-0.31
AACGCCGC	-0.168
CCCTATAG	-0.0738
GTAGTAAC	-0.0627
GATCCAAC	0.0935
CGTTTACC	-0.0614
CTGAGCAG	-0.111
CTTACAAC	0.127
AGTGCAAG	0.184
AGCGAGTC	-0.0597
ATGGCCTC	-0.142
AACCGAGC	-0.0626
ACAACGCC	-0.0433
TCAATAGA	0.172
CGGCCGAG	-0.138
CCCCAAGC	-0.0908
GAGAATGC	-0.0204
CCTAGGGA	-0.0964
CACAATTC	0.16
GAGCGCCC	-0.245

Sequence	PBM E-score
TACATAAA	0.259
AATACCCG	0.0839
ATCTTCGA	0.0476
CTGGCAAA	0.0898
GTGCGATA	0.0892
GAGTGTGC	-0.0145
ATGACTGC	-0.0609
TCCTCCAA	-0.0605
CTGAACTC	-0.105
GCGTGAAA	0.0243
ACTCCAAT	0.0629
ATGACTTG	-0.145
ACTATGTA	0.0693
GCCCACGA	-0.12
GCGTGCAA	-0.129
CAGGAAGC	0.00897
AGATGTCC	0.0719
AAGCTGGG	-0.031
AGTGCCAC	-0.299
AAAACCGG	0.178
GAGTAAAA	0.176
ACTAAATG	0.0633
TGGGACCA	-0.208
AGAGCCAA	-0.134
AAAAAACC	0.0982

Sequence	PBM E-score
GCTGGACA	-0.0562
CTCCATAA	-0.0373
CTAAGACC	-0.0691
AAGTGCCG	-0.0901
AGCTATAT	0.192
CGCTGAAA	-0.124
CCCTTCCC	-0.182
GGGCGAGA	-0.0995
TCAATTCA	0.162
GCCTCCTA	-0.182
CCGCGAGG	-0.155
CTCTTCGA	0.0693
AGCGGACG	-0.0881
AGTCTCCC	-0.225
GTACGGTA	0.193
GGCAGGAA	-0.216
ATCCGAAA	0.203
ACCAAGAC	0.0883
GAGGCGGC	-0.144
ACTGGTGC	-0.0655
GTAGGGAC	-0.195
TAGCCTAA	0.0539
